TGI and GI50 data for 84 compounds are collected here from PubChem BioAssay (NCI).

Where “and” joins values, the source holds several entries; their conditions need not be identical. Identical values can stand only once.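 Briefly, cells in 96-well plates were exposed to five compound concentrations for 48 h, and endpoints were estimated by linear interpolation. Here, GI50 denotes the concentration required for 50% inhibition of growth. TGI denotes the concentration required for complete inhibition of growth.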

This test has as its system NCI-H322M lung. As to the kind of experiment: NCI-60 cell line screen, 48 h.

Turning to `Cc1nn(C)cc1P(=S)(c1ccccc1)c1ccccc1`, the TGI was above 100 µM.

On to `N#CS.N=C=S.N=C=S.[Cu+2].[NH2-].[NH2-].[NH2-].[NH2-].c1ccc2ncccc2c1`, for which the GI50 is 22.4 µM and the TGI was 50 µM. As to `CC(C)N1CN(C(C(=O)N[C@@H]2C(=O)N3C2SC(C)(C)C3C(=O)O)c2ccc(O)cc2)CSC1=S` (stereo partly specified), the TGI is above 100 µM. On the same count and under the same terms, under `CCOP(=O)(OCC)[C@H]1OC(C)(C)O[C@@H]1CO` stands above 100 µM; under `COc1ccccc1/C=C1\CCC(CCN2CCOCC2)C1=O` (stereo unspecified), above 100 µM.

Compound `COC(=O)/C=C(\S/C(=N\n1cc(C(=O)OC)c(C(=O)OC)c1-c1ccc(C)cc1)c1ccc(C)cc1)C(=O)OC` came in with a TGI above 58.1 µM. Same read-out and setting: the result for `[O-][n+]1onc2c1/C(=N/O)CCC2` reads above 100 µM. The same measure, in the same setting: the result for `O=c1c2ccccc2c2ccccc2c(=O)n1Cc1ccc2c(c1)OCO2` reads above 100 µM.

With `Nc1ncnc2c1ncn2[C@H]1CC[C@@H](NO)C1`, the TGI was above 100 µM. `CCCCCCCCCCCCCCCCOCC(CCl)OP(=O)(O)OP(=O)(O)OCC1OC(n2ccc(N)nc2=O)C(O)C1O` (stereo unspecified) registered a TGI above 100 µM.

With `Cc1cc2c(c3oc(C4(C)OC4C4OC4C)cc(=O)c13)C(=O)c1c(O)c(C3CC(C)(N(C)C)C(O)C(C)O3)cc(C3CC(N(C)C)C(O)C(C)O3)c1C2=O` (stereo unspecified), the GI50 is 0.00265 µM and 0.000311 µM; the TGI was 0.00899 µM.

Turning to `COc1c(OC/C=C(\C)CCC=C(C)C)ccc2ccc(=O)oc12`, the TGI is above 100 µM.

On to `CC(C)(C)OC(=O)NC1CCC(C(C)(C)C)CC1` (stereo unspecified), for which the TGI is above 100 µM.

Consider `Cc1ccc2c(=O)cc(-c3ccsc3)[nH]c2n1`, for which the TGI was above 100 µM. On to `CN(C)CCCNC(=O)c1cncnc1Nc1ccc(OCc2cccc(F)c2)c(Cl)c1`, for which the GI50 is 1.69 µM and the TGI amounted to 3.06 µM. In the case of `S=C(N/N=C(/c1ccccc1)c1ccccn1)N1CCCCCC1`, the GI50 was below 0.001 µM. `c1ccc(C(=NNc2cnc3ccccc3n2)c2ccccn2)cc1` showed a TGI above 51.5 µM. Still for that read-out and setting: under `O=C(Nc1ccc(Cl)c(Cl)c1)N1N=C2c3ccccc3CCC2C1c1ccc(Cl)cc1` (stereo unspecified) stands above 100 µM. Turning to `COc1cc(O)c2c(c1)C(=O)c1cc3c(c(O)c1C2=O)C(OC1OC(C)C(O)C(O)C1OC)C(OC)C(C)(O)C3=O` (stereo unspecified), the TGI is 21.5 µM and 8.3 µM.

With `CN1Cc2cc3c(cc2-c2ccccc21)OCO3`, the TGI was above 100 µM. Still for that read-out and setting: the result for `CN1CC[C@]2(c3cccc(O)c3)CC(=O)/C(=C/c3ccc(Cl)c(Cl)c3)[C@@H]1C2` reads 3.22 µM.

On to `Cc1cn2c(/C=N/N=C(N)N)c(-c3cccnc3)nc2s1`, for which the GI50 is 17.5 µM and the TGI came to 32 µM. The like results for `Nc1c(C(=O)c2ccc(CCCN3CCOCC3)cc2)cnn1-c1ccc(F)cc1` were, in that order, above 25 µM and above 25 µM. Consider `O=C(NCC(O)CNC(=O)C(F)(F)F)C(F)(F)F`, for which the TGI was above 100 µM.

`COCn1c(C)c(C)c2c(=O)oc(N(C)C)nc21` showed a TGI above 100 µM. Same read-out and setting: the result for `Clc1ccc(-c2ccc(-c3nn4c(CNc5ccccc5)nnc4s3)o2)c(Cl)c1` reads above 100 µM. The same measure, in the same setting: under `CN(C)CCCCN1c2ccccc2Sc2ccc(C(=O)c3ccccc3)cc21` stands 5.96 µM; under `CCCCCCCCCCCCCCCCOP(=O)(O)OP(=O)(O)OCC1OC(n2ccc(N)nc2=O)C(O)C1O` (stereo unspecified), above 100 µM. As for `C[n+]1ccc(-c2c3nc(c(-c4cc[n+](C)cc4)c4ccc([n-]4)c(-c4cc[n+](C)cc4)c4nc(c(-c5cc[n+](C)cc5)c5ccc2[n-]5)C=C4)C=C3)cc1.[I-].[Zn+2]`, the GI50 was 32.2 µM and the TGI was found to be 74.8 µM. Turning to `COC(=O)/C=C\C(C#N)(C#N)N=Cc1ccc(Br)s1`, the TGI stood at 33.2 µM. Consider `CCC1C(=O)C(O)[C@H]2[C@@H]3C(O)CC4=CC(=O)CC[C@]4(C)[C@H]3CC[C@]12C` (stereo partly specified), for which the TGI was above 50 µM.

As to `CCc1cc2c(cc1N1CCC(N3CCOCC3)CC1)C(C)(C)c1[nH]c3cc(C#N)ccc3c1C2=O`, the GI50 is 2.35 µM and 1.91 µM and 2.22 µM; the TGI was 10.4 µM and 5.43 µM and 7.25 µM.

`C[C@]12CC[C@H](O)CC1=CC[C@@H]1[C@@H]2CC[C@]2(C)C(=N/O)/C(=C/c3ccc([N+](=O)[O-])cc3)C[C@@H]12` showed a TGI of 15.3 µM. On the same count and under the same terms, the result for `COc1ccc(OC(C(=O)O)c2ccccc2)c2c1CCCC2=O` (stereo unspecified) reads above 100 µM. As for `CC1=C[P+](Cc2ccccc2)(c2ccccc2)CC1` (stereo unspecified), the GI50 was > 100 µM and 44.1 µM; the TGI is above 100 µM. In turn, `S=c1nc(Cl)cc2[nH]c(Cl)cn12` displayed a TGI above 100 µM.

Compound `O=C1CCCC2C3CC(CN12)C1CCCCN1C3` (stereo unspecified) returned a TGI above 100 µM. The compound `N#Cc1nc(C(CO)N(Cc2ccccc2)C(=O)O)oc1N` (stereo unspecified) gave a TGI above 100 µM. The same measure, in the same setting: the result for `Cc1nc2c(o1)C(=O)c1ccccc1C2=Nc1ccc(N2CCOCC2)cc1` reads 31.6 µM. Same read-out and setting: under `O=c1c2cc([N+](=O)[O-])ccc2nc2n1CCCCC2` stands above 100 µM. In the case of `O=c1c2c3c(sc2nc(N/N=C/c2ccc(Br)cc2)n1Cc1ccccc1)CCCC3`, the GI50 is 7.22 µM and the TGI is above 100 µM.

`C[C@H](CCCNCCCNCCCN)[C@H]1CC[C@H]2[C@@H]3[C@H](OCCCN)C[C@H]4C[C@H](OCCCN)CC[C@]4(C)[C@H]3C[C@H](OCCCN)[C@]12C`: the GI50 is 2.1 µM and the TGI came to 30.7 µM.

For the compound `Cc1ccc(NC2=N/C(=C/c3ccccc3)C(Cl)=N2)cc1`, the TGI was above 100 µM. For the compound `CN1CC(CNC(=O)OCc2ccccc2)CC2c3cccc4c3c(cn4C)CC21` (stereo unspecified), the GI50 is 3.92 µM and the TGI stood at 15.2 µM.

Consider `O=c1c2cc([N+](=O)[O-])ccc2n2n1CCCC2`, for which the TGI was above 100 µM.

Compound `Clc1cc(Br)c2c3c(c(Br)cc(Cl)c13)C(Br)=C2Br` showed a TGI above 100 µM.

With `CC1=C([Te]c2ccc(O)cc2)C(=O)c2ccccc2C1=O`, the GI50 is 2.31 µM and the TGI was 9.49 µM.

Take `COC1O[C@H]2[C@H]3[C@@H]1[C@@H](OS(=O)(=O)c1ccc(C)cc1)C(=O)N3C[C@H]2O` (stereo partly specified): the TGI is above 100 µM. In turn, `COc1ccc(/C(CC2OC(=O)c3ccccc32)=N\NC(=O)C[N+](C)(C)C)cc1` (stereo unspecified) yielded a TGI above 100 µM. With `CC[C@@H]1C[C@H]2CC3c4[nH]c5ccc(O)cc5c4CCN(C2)C31`, the TGI was above 100 µM.

As to `CC(C)(C)OC(=O)NC(CO)c1cccc(OCc2ccccc2)c1` (stereo unspecified), the TGI is above 100 µM. For the compound `Cc1ccc(/C=C2\Cc3cccc(C)c3C2=O)c(C(=O)O)c1`, the TGI is above 100 µM.

`O=C1OCc2cc3cc4c(cc3c(-c3ccc5c(c3)OCO5)c21)OCO4` (tested in a mixture with another compound): the TGI was above 100 µM. Take `CCCCCCCCCCCCOC1C(C(CC(=O)N2CCN(c3cccc(C(F)(F)F)c3)CC2)NS(=O)(=O)c2cc(Cl)cc(Cl)c2)OC2OC(C)(C)OC21` (stereo unspecified): the GI50 is above 100 µM and the TGI was above 100 µM.

`Cl/C(=C\C=Nc1ccc(I)cc1)c1ccc2ccccc2c1` returned a TGI above 79.4 µM.

With `O=C(NO)c1ccc(Cn2c(=O)n(-c3ccccc3F)c(=O)c3ccccc32)cc1`, the GI50 is 2.33 µM and the TGI was 8.88 µM. Turning to `COc1cc(/C=C\c2cccnc2)cc(OC)c1OC`, the TGI was above 100 µM. `O=C(COC(=O)c1cccc2c(=O)c3ccccc3[nH]c12)Nc1ccccc1` showed a TGI above 100 µM.

With `O=C(/C=C/c1ccccc1)N1CCCCC1`, the TGI is above 100 µM. Take `NCCC(=O)N[C@@H](Cc1cc(O)c(O)c(SCC(NC(=O)CC[C@H](N)C(=O)O)C(=O)NCC(=O)O)c1)C(=O)O` (stereo partly specified): the TGI is above 50 µM. `CCS(=O)(=O)Nc1cccc(Nc2c3cccc(C)c3nc3c(C)cccc23)c1OC`: the GI50 was 9.05 µM and the TGI is above 61.1 µM. For `c1ccc(CN=C(NCc2ccccc2)NCc2ccccc2)cc1`, the GI50 was 8.64 µM and the TGI came to 21.5 µM. Consider `Cc1nc(C(N)=S)sc1C(=O)CC(=O)C(=O)Nc1nc2ccccc2[nH]1`, for which the TGI was above 100 µM. Still for that read-out and setting: the result for `Nc1nc(Nc2ccccc2)sc1C(=O)c1cccs1` reads 27.9 µM.

`NC(N)=NS(=O)(=O)c1ccc(Nc2c3ccccc3nc3c(C(=O)Nc4ccc(S(N)(=O)=O)cc4)ccc(Cl)c23)cc1`: the TGI was above 100 µM. On the same count and under the same terms, under `C=CCNS(=O)(=O)c1ncnc2nc[nH]c12` stands above 100 µM. In the case of `C=C(CN1CCN(c2cccc(C(F)(F)F)n2)CC1)c1ccc(C(=S)Nc2ccccc2N)cc1`, the GI50 is 5.75 µM and the TGI was above 100 µM. As for `CC(=N\N=C\c1ccccn1)/C(C)=N/N=C(C)/C(C)=N/N=C/c1ccccn1`, the TGI is above 100 µM. Same read-out and setting: the result for `COC1CC(NC(=O)C(F)(F)F)C(OC(C)=O)C(C)O1` (stereo unspecified) reads above 100 µM; that for `O=C(c1cc2c(c3ccccc13)NCCN=C2C(F)(F)F)C(F)(F)F`, above 100 µM; that for `CNC(=O)CN(C)C(=O)CCC(=O)N(C)C`, above 100 µM. Regarding `COc1cc(OC)c(NC(=O)c2cc3ccccc3cc2O)cc1Cl`, the GI50 is 2.82 µM and the TGI worked out at 22.7 µM.

`Cc1cc(O)cc(C)c1/C=C/c1cncc(-c2nn[nH]n2)c1`: the GI50 is above 25 µM and the TGI is above 25 µM.

As for `NC1=NCCN1CC(=O)O`, the GI50 was above 10000 µM and the TGI was above 10000 µM. In turn, `O=S(O)CCCSSc1ccccc1` returned a TGI above 100 µM. `CCOC(=O)[C@@H](C)C[C@H](Cc1ccccc1)NC(=O)c1csc([C@@H](C[C@H](C(C)C)N(C)C(=O)[C@H](CC)NC(=O)[C@H]2CCCCN2C)OC(C)=O)n1`: the GI50 is 0.00429 µM and the TGI is above 16.7 µM. Compound `COC(=O)C1C2CC3C1C3C2C(=O)OC` (stereo unspecified) had a TGI above 100 µM. Turning to `CN(C)Cc1cc(C=O)cc(CN(C)C)c1O`, the TGI was above 100 µM. Still for that read-out and setting: the result for `O=c1oc(=O)c2oc3ccccc3oc1=2` reads above 100 µM. `O=[N+]([O-])c1c(C=Nc2ccccc2)oc(-c2ccc3c(c2)OCO3)c1-c1ccc2c(c1)OCO2` came in with a TGI above 100 µM.

On to `O=c1[nH]c(-n2[nH]c3c(c2=O)CCCC3)nc(O)c1-c1ccccc1`, for which the TGI was above 100 µM.

`COc1cc(/C=C/C(=O)CC(=O)/C=C/c2ccc(O)c(OC)c2)ccc1O` returned a TGI of 32.1 µM. With `COc1cc(-c2nn(-c3cccc(NC(=O)c4ccc(N5CCOCC5)c(C(F)(F)F)c4)c3)cc2-c2ccncc2)ccc1Cl`, the GI50 is 0.553 µM and the TGI was determined as 97.1 µM. As for `O=C(Oc1ccc(Cl)cc1[N+](=O)[O-])c1ccccc1`, the TGI was above 100 µM.
